Assay results as given in PMC11109976, “CSB and SMARCAL1 compete for RPA32 at stalled forks and differentially control the fate of stalled forks in BRCA2-deficient cells” (Nucleic Acids Research, 2024).

Assays:
[1] = biological target: T1, CSB fragment containing amino acids from 123 to 203 (human, UniProt Q03468-1 123-203); experiment: MST; RPA32C labelled with RED-tris-NTA (His-tag labelling kit), 100 nM mixed 1:1 with 2-fold serial dilutions of the ligand; 50 mM HEPES pH 8.0, 400 mM NaCl, 10% glycerol, 0.05% Tween-20; incubated 30 min at 37°C, measured at 25°C; three replicates; conditions: both partners purified
T1 construct: CSB, human, residues 123-203; No tag cleavage is described; also called CSB(123-203); source: E. coli SoluBL21, purified (Ni-NTA, cation exchange)

[2] = biological target: T2, CSB-F fragment carrying RQK-AAA mutations (human, UniProt Q03468-1 123-203, R^176Q^177K^178-AAA); experiment: as above; conditions: both partners purified
T2 construct: CSB, human, residues 123-203 with R176Q177K178 changed to AAA; in pMCSG7 with a TEV-cleavable N-terminal 6X His-tag; No tag cleavage is described; also called CSB-F-AAA; CSB RQK-AAA(123-203); source: E. coli SoluBL21, purified (Ni-NTA)

B1: RPA32 construct spanning the region […] (domain or fragment)
chain: not shown
modifications: RED-tris-NTA dye on the His tag
notes: RPA32, […] (C-terminal winged helix domain); Cloned by LIC; also called RPA32([…]); C-terminal winged helix domain of RPA32; source: E. coli SoluBL21, purified (Ni-NTA, anion exchange, SEC)
Kd [1]: 940 nM
Kd [2]: 4410 nM
